# According to the supplement of paper PMC8728848:
# The other results are listed elsewhere or left out.
# B1: Siglec-F (Mus musculus), Q920G3 (protein)
# chain: MRWAWLLPLLWAGCLATDGYSLSVTGSVTVQEGLCVFVACQVQYPNSKGPVFGYWFREGANIFSGSPVATNDPQRSVLKEAQGRFYLMGKENSHNCSLDIRDAQKIDTGTYFFRLDGSVKYSFQKSMLSVLVIALTEVPNIQVTSTLVSGNSTKLLCSVPWACEQGTPPIFSWMSSALTSLGHRTTLSSELNLTPRPQDNGTNLTCQVNLPGTGVTVERTQQLSVIYAPQKMTIRVSWGDDTGTKVLQSGASLQIQEGESLSLVCMADSNPPAVLSWERPTQKPFQLSTPAELQLPRAELEDQGKYICQAQNSQGAQTASVSLSIRSLLQLLGPSCSFEGQGLHCSCSSRAWPAPSLRWRLGEGVLEGNSSNGSFTVKSSSAGQWANSSLILSMEFSSNHRLSCEAWSDNRVQRATILLVSGPKVSQAGKSETSRGTVLGAIWGAGLMALLAVCLCLIFFTVKVLRKKSALKVAATKGNHLAKNPASTINSASITSSNIALGYPIQGHLNEPGSQTQKEQPPLATVPDTQKDEPELHYASLSFQGPMPPKPQNTEAMKSVYTEIKIHKC
# What was measured:
# Test in all cases: glycan array binding signal (z-score within array); higher = stronger binding
# Settings in all cases: glycan notation: IUPAC condensed, linker removed
# [1] = biological target: Fuc(a1-2)[GalNAc(a1-3)]Gal(b1-4)GlcNAc(b1-6)GalNAc
# Summary of the method: (§1)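 From the Consortium for Functional Glycomics database, 3228 arrays were curated, keeping only those whose protein sequence was available. Binding is given as a within-array Z-score averaged across arrays sharing a protein sequence and across linkers. Negative Z-scores can be read as non-binding.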
# [2] = biological target: Fuc(a1-2)[GalNAc(a1-3)]Gal(b1-4)[Fuc(a1-3)]GlcNAc
# Summary of the method: as §1
# [3] = biological target: Fuc(a1-2)[GalNAc(a1-3)]Gal(b1-4)[Fuc(a1-3)]GlcNAc(b1-3)GalNAc
# Summary of the method: as §1
# [4] = biological target: Fuc(a1-2)[GalNAc(a1-4)]Gal(b1-4)GlcNAc
# Summary of the method: as §1
# [5] = biological target: Fuc(a1-2)[GalNAc(b1-3)]Gal
# Summary of the method: as §1
# Fuc(a1-3)GlcNAc = biological target: Fuc(a1-3)GlcNAc
# Summary of the method: as §1
# [6] = biological target: Fuc(a1-3)[Gal(b1-4)]Glc6S
# Summary of the method: as §1
# [7] = biological target: Fuc(a1-3)[Gal(b1-4)]GlcNAc
# Summary of the method: as §1
# [8] = biological target: Fuc(a1-3)[Gal(b1-4)]GlcNAc(b1-2)Man
# Summary of the method: as §1
# [9] = biological target: Fuc(a1-3)[Gal(b1-4)]GlcNAc(b1-2)Man(a1-3)[Fuc(a1-3)[Gal(b1-4)]GlcNAc(b1-2)Man(a1-6)]Man(b1-4)GlcNAc(b1-4)GlcNAc
# Summary of the method: as §1
# [10] = biological target: Fuc(a1-3)[Gal(b1-4)]GlcNAc(b1-2)Man(a1-3)[Fuc(a1-3)[Gal(b1-4)]GlcNAc(b1-2)Man(a1-6)]Man(b1-4)GlcNAc(b1-4)[Fuc(a1-6)]GlcNAc
# Summary of the method: as §1
# [11] = biological target: Fuc(a1-3)[Gal(b1-4)]GlcNAc(b1-3)Gal(b1-3)[Fuc(a1-4)]GlcNAc
# Summary of the method: as §1
# [12] = biological target: Fuc(a1-3)[Gal(b1-4)]GlcNAc(b1-3)Gal(b1-4)[Fuc(a1-3)]GlcNAc
# Summary of the method: as §1
# [13] = biological target: Fuc(a1-3)[Gal(b1-4)]GlcNAc(b1-3)Gal(b1-4)[Fuc(a1-3)]GlcNAc(b1-3)Gal(b1-4)[Fuc(a1-3)]GlcNAc
# Summary of the method: as §1
# [14] = biological target: Fuc(a1-3)[Gal(b1-4)]GlcNAc(b1-3)GalNAc
# Summary of the method: as §1
# [15] = biological target: Fuc(a1-3)[Gal(b1-4)]GlcNAc(b1-4)Gal(b1-4)[Fuc(a1-3)]GlcNAc
# Summary of the method: as §1
# [16] = biological target: Fuc(a1-3)[Gal(b1-4)]GlcNAc(b1-4)Gal(b1-4)[Fuc(a1-3)]GlcNAc(b1-4)Gal(b1-4)[Fuc(a1-3)]GlcNAc
# Summary of the method: as §1
# [17] = biological target: Fuc(a1-3)[Gal(b1-4)]GlcNAc(b1-6)GalNAc
# Summary of the method: as §1
# [18] = biological target: Fuc(a1-3)[Gal(b1-4)]GlcNAc(b1-6)[Gal(b1-3)GlcNAc(b1-3)]Gal(b1-4)Glc
# Summary of the method: as §1
# [19] = biological target: Fuc(a1-3)[Gal(b1-4)]GlcNAc(b1-6)[Neu5Ac(a2-3)Gal(b1-3)]GalNAc
# Summary of the method: as §1
# [20] = biological target: Fuc(a1-3)[Gal(b1-4)]GlcNAc6S
# Summary of the method: as §1
# [21] = biological target: Fuc(a1-3)[Gal3S(b1-4)]Glc
# Summary of the method: as §1
# [22] = biological target: Fuc(a1-3)[Gal3S(b1-4)]GlcNAc
# Summary of the method: as §1
# [23] = biological target: Fuc(a1-3)[Gal3S(b1-4)]GlcNAc6S
# Summary of the method: as §1
# [24] = biological target: Fuc(a1-3)[GalNAc(b1-4)]GlcNAc
# Summary of the method: as §1
# [25] = biological target: Fuc(a1-3)[GalNAc(b1-4)]GlcNAc6S
# Summary of the method: as §1
# Fuc(a1-4)GlcNAc = biological target: Fuc(a1-4)GlcNAc
# Summary of the method: as §1
# Fuc(b1-3)GlcNAc = biological target: Fuc(b1-3)GlcNAc
# Summary of the method: as §1
# Gal(a1-2)Gal = biological target: Gal(a1-2)Gal
# Summary of the method: as §1
# Gal(a1-3)Gal = biological target: Gal(a1-3)Gal
# Summary of the method: as §1
binder,measurement,setting,value
B1,glycan array binding signal (z-score),[1],-0.165
same,glycan array binding signal (z-score),[2],-0.058
same,glycan array binding signal (z-score),[3],-0.018
same,glycan array binding signal (z-score),[4],0.045
same,glycan array binding signal (z-score),[5],-0.038
same,glycan array binding signal (z-score),Fuc(a1-3)GlcNAc,-0.129
same,glycan array binding signal (z-score),[6],-0.08
same,glycan array binding signal (z-score),[7],-0.117
same,glycan array binding signal (z-score),[8],-0.137
same,glycan array binding signal (z-score),[9],0.004
same,glycan array binding signal (z-score),[10],-0.093
same,glycan array binding signal (z-score),[11],-0.123
same,glycan array binding signal (z-score),[12],-0.096
same,glycan array binding signal (z-score),[13],-0.115
same,glycan array binding signal (z-score),[14],0.006
same,glycan array binding signal (z-score),[15],-0.061
same,glycan array binding signal (z-score),[16],-0.121
same,glycan array binding signal (z-score),[17],-0.109
same,glycan array binding signal (z-score),[18],-0.102
same,glycan array binding signal (z-score),[19],-0.088
same,glycan array binding signal (z-score),[20],0.026
same,glycan array binding signal (z-score),[21],-0.146
same,glycan array binding signal (z-score),[22],-0.127
same,glycan array binding signal (z-score),[23],-0.114
same,glycan array binding signal (z-score),[24],-0.106
same,glycan array binding signal (z-score),[25],-0.152
same,glycan array binding signal (z-score),Fuc(a1-4)GlcNAc,-0.106
same,glycan array binding signal (z-score),Fuc(b1-3)GlcNAc,-0.128
same,glycan array binding signal (z-score),Gal(a1-2)Gal,-0.117
same,glycan array binding signal (z-score),Gal(a1-3)Gal,-0.121
